From PubChem BioAssay AID588855 (National Center for Advancing Translational Sciences (NCATS), 2011)
Hit rate of the full screen: of about 410,000 compounds, about 5,000 (1.2%) were called active. This list was built around the results that the source calls inconclusive (neither active nor inactive); the mix of calls is not that of the screen. The call rests on the fitted dose curve; in most records, active means well fitted inhibition curve with a large enough effect; inconclusive means small, poorly fitted or top-dose-only effect; inactive means no such curve, though single readings can be large or run the other way. Potencies of inconclusive entries are doubtful fits and often do not repeat.

Assay: qHTS for Inhibitors of TGF-b; further: nearly all actives have a fitted effect of over 65% in size
Conditions: HepG2 CAGA-GFP TGF-b/SMAD3 reporter, GFP fluorescence, 18 h, TGF-beta stimulated, 500 pg/mL final; series mostly up to 46.1 µM
How it was run: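 GFP signal (ex488/em500-530) from TGF-beta-stimulated HEPG2 CAGA-GFP cells, 500 pg/mL final, 18 h at 37 degrees C in DMEM plus 1% FBS, normalized to unstimulated and DMSO-stimulated controls.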
Potency means the concentration at half of the fitted maximal effect; tags describe the fitted curve by direction and shape.

Row | SMILES | Potency
1 | CCOC(=O)CC1COc2ccccc2N1C(=O)c1ccc(F)cc1 (stereo not drawn) | inactive
2 | O=C(NCCn1cc(SCc2ccccc2F)c2ccccc21)c1c(F)cccc1F | inconclusive: 35.5 µM [inhibitor, single point]
3 | Cc1ccc(S(=O)(=O)Cn2nnnc2C(C(C)C)N2CCN(C(=O)c3ccco3)CC2)cc1 (stereo not drawn) | inactive
4 | CCCn1cc(S(=O)(=O)c2cc(C)ccc2C)c(=O)c2cc(F)c(N3CCN(CC)CC3)cc21 | inactive
5 | CN(C)S(=O)(=O)c1cccc(NC(=O)CSc2nnnn2-c2ccccc2)c1 | inconclusive: 6.31 µM [inhibitor, full curve, poor fit]
6 | CCOC(=O)c1c(S(=O)(=O)NCC(=O)NCc2ccccc2Cl)c(C)n(C)c1C | inconclusive: 15.8 µM [inhibitor, single point]
7 | CS(=O)(=O)c1cccc(-c2csc(N3CCC(C(N)=O)CC3)n2)c1 | inconclusive: 11.2 µM [inhibitor, single point]
8 | C=CCn1c(Cc2ccc(OC)cc2)nnc1SCc1nc2ccccc2c(=O)[nH]1 | inconclusive: 35.5 µM [inhibitor, single point]
9 | CCCCc1c(C)c(C#N)c2nc3ccccc3n2c1NCCN(C)C | inactive
10 | COc1ccc(/C=N/NC(=O)c2ccc3ccccc3c2)cc1OS(=O)(=O)c1ccc(NC(C)=O)cc1 | inconclusive: 7.08 µM [inhibitor, partial curve]
11 | Oc1ccc2ccccc2c1C=Nc1ccccc1-c1nc2ccccc2[nH]1 | inconclusive: 15.8 µM [inhibitor, single point]
12 | Cc1c(C(=O)N2CCCCC2)oc2ccc(S(=O)(=O)N3CC(C)CC(C)C3)cc12 (stereo not drawn) | active: 11.2 µM
13 | FC(F)Oc1ccccc1NC(=S)Nc1cccnc1 | inactive
14 | CCc1ccccc1NC(=O)c1sc(-n2nc(C)c(Cc3ccccc3)c2C)nc1C | inactive
15 | O=C(CCCN1C(=O)S/C(=C\C=C\c2ccccc2)C1=O)Nc1ccc(C(=O)O)cc1 | inconclusive: 3.98 µM [inhibitor, partial curve]
16 | CC(C)OP(=O)(OC(C)C)C1(O)C(=O)Nc2ccccc21 (stereo not drawn) | inconclusive: 35.5 µM [inhibitor, single point]
17 | O=C(CCCOc1ccccc1)NCCc1nc2ccccc2[nH]1 | inactive
18 | O=C(Cc1ccc(Cl)cc1)Nc1cccc(C(=O)Nc2ccccc2C(=O)O)c1 | inconclusive: 25.1 µM [inhibitor, single point]
19 | COc1cc(/C=N/NC(=O)c2ccc(F)cc2)ccc1OC(=O)c1ccco1 | inactive
20 | O=C(Nc1ncccc1O)c1cc2ccccc2o1 | inconclusive: 14.1 µM [inhibitor, single point]
21 | Fc1ccc(N=C2NN=C(c3cc(F)ccc3F)CS2)cc1 | inconclusive: 25.1 µM [inhibitor, single point]
22 | O=C(N/N=C/c1ccccc1Cl)c1n[nH]c2c1CCCC2 | inactive
23 | CCOC(=O)C1=C(N)c2ccccc2CC1C(C)C (stereo not drawn) | inconclusive: 35.5 µM [inhibitor, single point]

Row | SMILES | Potency
24 | COc1cccc(Cn2c(SCc3ccc(C(=O)N4CCCCC4)cc3)nc3ccncc32)c1 | inconclusive: 28.2 µM [inhibitor, single point]
25 | O=C(Nc1nc2n(n1)C(c1ccccc1)C=C(c1ccc(Cl)cc1)N2)c1ccco1 (stereo not drawn) | inactive
26 | Cn1cnc([N+](=O)[O-])c1S(=O)(=O)Oc1ccc(Cl)cc1 | inconclusive: 22.4 µM [inhibitor, single point]
27 | Cc1ccc(S(=O)(=O)N2[C@@H](c3ccc(Br)cc3)C(C(=O)O)=CC[C@H]2c2ccc(Cl)c(Cl)c2)cc1 | inconclusive: 20 µM [inhibitor, single point]
28 | CC(=O)c1ccc(S(=O)(=O)N(CCCO)Cc2cc3cc(C)ccc3[nH]c2=O)cc1 | inconclusive: 35.5 µM [inhibitor, single point]
29 | O=C(Nc1nc2cc3c(cc2s1)OCCO3)c1ccc([N+](=O)[O-])o1 | inconclusive: 3.55 µM [inhibitor, full curve]
30 | COc1ccc(CNC(=O)C(=O)NCC2OCCN2S(=O)(=O)c2ccccc2)cc1 (stereo not drawn) | inconclusive: 3.55 µM [inhibitor, single point]
31 | Cc1noc(C)c1S(=O)(=O)Nc1ccc2c(c1)C(=O)N([C@H](C)CO)C[C@H](C)[C@@H](CN(C)C(=O)CCCN(C)C)OCCCC[C@@H](C)O2 | inactive
32 | CN(CC(=O)Nc1cccc(F)c1)C(=O)c1ccc(C2SCCS2)cc1 | inconclusive: 35.5 µM [inhibitor, partial curve, poor fit]
33 | Cc1cc(NCc2ccccc2)nc2ccccc12 | inactive
34 | c1ccc2c(NCCc3c[nH]c4ccccc34)c3ccccc3nc2c1 | inconclusive: 35.5 µM [inhibitor, single point]
35 | COCC(=O)N1CCCC(C(=O)c2ccc3c4c(cccc24)CC3)C1 (stereo not drawn) | inconclusive: 17.8 µM [inhibitor, single point]
36 | O=C(Nc1ccccc1)c1cc(C2CCCCN2S(=O)(=O)Cc2cccc(C(F)(F)F)c2)on1 (stereo not drawn) | inactive
37 | COc1ccc2c(c1)CCc1sc(NC(=O)c3ccc(C)cc3)nc1-2 | inconclusive: 35.5 µM [inhibitor, single point]
38 | COc1ccc(-c2ccc3c(N)c(C(=O)NCc4ccc(C)cc4)sc3n2)cc1 | inconclusive: 0.355 µM [inhibitor, full curve, poor fit]
39 | Cc1ccc2c(c1)N(C(=O)N1CCC(C(=O)NCCc3ccccc3)CC1)CC(C)O2 (stereo not drawn) | inconclusive: 35.5 µM [inhibitor, single point]
40 | CC(=O)Nc1cc2c3c(c1)CCC(=O)N3CCC2 | inactive
41 | CCOC(=O)N1CCc2c(sc(NC(C)=O)c2C(N)=O)C1 | inactive
42 | CCC(C(=O)NN1C(=O)c2ccccc2C1=O)c1ccccc1 (stereo not drawn) | inconclusive: 35.5 µM [inhibitor, single point]
43 | O=C(NCCCNc1ccc([N+](=O)[O-])cc1)C(F)(F)F | inconclusive: 7.94 µM [inhibitor, partial curve, poor fit]
44 | COc1ccc([C@@H]2[C@@H](C)N(c3ccccc3)c3ccccc3C(=O)N2Cc2ccccc2)cc1 | inconclusive: 28.2 µM [inhibitor, single point]
45 | CCCCCC(=O)N1C[C@H](n2cc(-c3ccc(F)cc3)nn2)[C@@H](O)C[C@@H]1c1ccc(Cl)cc1 | inconclusive: 35.5 µM [inhibitor, single point]
46 | COc1ccc(CCC(=O)NNC(=O)c2ccccn2)cc1OC | inconclusive: 0.794 µM [inhibitor, full curve, poor fit]

Row | SMILES | Potency
47 | O=C(COC(=O)c1cccc(OC(F)F)c1)Nc1cccc(S(=O)(=O)N2CCCC2)c1 | inactive
48 | O=C(Nc1ccncc1)Nc1ccccc1Cl | inactive
49 | CC(C)(C)n1ncc2c(=O)n(Cc3cccc(OC(F)(F)F)c3)cnc21 | inconclusive: 12.6 µM [inhibitor, partial curve]
50 | N#CC1=C(Nc2ccccc2Cl)SC2(CCCC2)NC1=O | inconclusive: 11.2 µM [inhibitor, single point]
51 | Cc1ccc(C(=O)N/C(=C\c2ccco2)C(=O)NCC2CCCO2)cc1C (stereo not drawn) | inconclusive: 15.8 µM [inhibitor, single point]
52 | Cc1cc(C)nc(SCc2ccc(F)cc2)n1 | inactive
53 | O=C(NC(=S)Nc1cccc2c(O)cccc12)c1ccco1 | inconclusive: 20 µM [inhibitor, single point]
54 | COc1ccc(C(=O)Nc2cccnc2Sc2ccc(Cl)cc2)cc1 | inactive
55 | O=C1/C(=C/c2ccccc2)SC(=S)N1CCCC(=O)N1CCCCC1CCO (stereo not drawn) | inconclusive: 14.1 µM [inhibitor, partial curve, poor fit]
56 | CC(=O)c1ccc(-n2c(=O)[nH]c(=O)c3c(N)c(C(=O)c4ccc(Cl)cc4)sc32)cc1 | inconclusive: 11.2 µM [inhibitor, partial curve]
57 | CCCc1cc(=O)n2[nH]cc(-c3ccc(Cl)cc3)c2n1 | active: 5.01 µM
58 | C[C@H](O)[C@@H]1C(=O)N2CCc3ccc(-c4cccc(F)c4)cc3[C@@H]2C[C@@H]1N(C)C(=O)Nc1ccccc1 | inconclusive: 35.5 µM [inhibitor, partial curve, poor fit]
59 | Cc1cc(C)c(S(=O)(=O)NCC(c2ccco2)S(=O)(=O)c2cccs2)c(C)c1 (stereo not drawn) | inconclusive: 35.5 µM [inhibitor, single point]
60 | CC1CCN(c2nnc(-c3cccs3)c3ccccc23)CC1 | inconclusive: 35.5 µM [inhibitor, single point]
61 | Cc1ccc2nc(-c3cccc(SC4CCCCC4)c3)c(NC3CCCCC3)n2c1 | inactive
62 | C/C(=N\NC(=O)c1ccc(Cl)c(Cl)c1)c1cccc(NC(=O)C(C)C)c1 | inactive
63 | COc1ccc(-c2noc(CN3CCN(C(=O)c4cccs4)CC3)n2)c(OC)c1OC | inactive
64 | O=C(C1=C[C@@H](c2ccc(C(F)(F)F)cc2)C[C@@H](OCc2ccc(CO)cc2)O1)N1CCN(Cc2ccccc2)CC1 | active: 14.1 µM
65 | O=C1C=CC(=O)N1c1ccc2c(c1)C(NC(=O)C(F)(F)F)c1ccccc1-2 (stereo not drawn) | inconclusive: 22.4 µM [inhibitor, single point]
66 | CCCCN1C(Nc2ccccc2)=NC[C@@H]1C | inconclusive: 12.6 µM [inhibitor, single point]
67 | Cc1ccc(S(=O)(=O)N2CCC(=O)N(CCOC(=O)Nc3ccc(F)cc3)CC2)cc1 | inconclusive: 10 µM [inhibitor, partial curve]
68 | O=C(CNc1ccc(F)cc1Cl)Nc1cccc(S(=O)(=O)N2CCCCC2)c1 | inconclusive: 31.6 µM [inhibitor, single point]
